# The campaign covered roughly 44,000 compounds. About 340 (0.77%) were called active. Not shown: some 5% with an inconclusive outcome. The call rests on the fitted dose curve; in most records, active means well fitted inhibition curve with a large enough effect; inconclusive means small, poorly fitted or top-dose-only effect; inactive means flat fitted curve, though single readings scatter. The list shows a part of the results.
# Assay: Acumen qHTS Assay for Inhibitors of the mTORC1 Signaling Pathway in MEF (Tsc2-/-, p53-/-) Cells: Sytravon;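 further: plate controls were DMSO for no effect and rapamycin for full effect; nearly all actives have a fitted effect of over 50% in size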
# Details: phospho-rpS6 immunofluorescence/PI, 24 h; series mostly up to 38.3 µM; activity change, negative = inhibition: at the top concentration
# Procedure, shortened: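 Compounds act on Tsc2-/-, p53-/- fibroblasts carrying an empty vector for 24 h before fixation and dual staining for phospho-S6 and DNA (propidium iodide). Values are percentages of cells above a rapamycin-defined pS6/PI threshold.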
row,SMILES,"activity change, negative = inhibition"
1,Cc1ccc(CNS(=O)(=O)c2cc(C(=O)Nc3ccc(C(C)C)cc3)ccc2F)cc1,inactive: 2.43%
2,Cc1ccc(CNC(=O)CSCc2nc(-c3ccc(Cl)cc3)oc2C)cc1,inactive: 1.81%
3,CCc1ccccc1NC(=O)Cn1cc(C(=O)c2ccc(Cl)cc2)c(=O)c2ccc(C)nc21,inactive: 2.76%
4,CCOC(=O)c1[nH]c2ccccc2c1NC(=O)c1cc(OC)cc(OC)c1,inactive: -5.74%
5,COc1cccc(-c2ccnc3c(-c4ccccc4)c(C)nn23)c1,inactive: -0.521%
6,CCOc1ccc(NC(=O)N2CCC(CN3CCC(C)CC3)CC2)cc1,inactive: -9.11%
7,Cc1cccc(N2CCN(C(=O)COCc3cc(-c4ccc5c(c4)OCO5)on3)CC2)c1C,inactive: -6.3%
8,COc1ccc(-c2cc(C(=O)NCCc3ccc(Cl)cc3)[nH]n2)cc1,inactive: -13.3%
9,Cc1ccccc1-c1nc2c3c(-c4ccccc4)c(-c4ccccc4)oc3ncn2n1,inactive: 1.04%
10,COC(=O)c1ccccc1NC(=O)COCc1cc(-c2cccs2)on1,inactive: 0.825%
11,COc1ccc(-c2cc(C(=O)Nc3cccc(C(C)=O)c3)no2)cc1OC,inactive: 5.25%
12,CCn1c(=O)n(-c2ccc(F)c(Cl)c2)c(=O)c2sc3ccccc3c21,inactive: 0.392%
13,Cc1ccc(CN(C(=O)c2ccc(F)cc2)c2ccccn2)o1,inactive: 0.344%
14,O=C(NCc1ccc(F)cc1)C1CCN(S(=O)(=O)c2ccc3c(c2)CCCN3C(=O)C2CCC2)CC1,inactive: -3.4%
15,O=C(COc1ccccc1Cl)N(Cc1ccco1)Cc1ccco1,inactive: 2.42%
16,Cc1ccccc1C(=O)Oc1cc(-c2ccc3c(c2)OCO3)cc(=O)c2c(C)oc(C)c12,inactive: -7.95%
17,CN(C)c1ccc(NC(=O)CSc2nc(-c3ccco3)cc(C(F)(F)F)n2)cc1,inactive: -12%
18,O=C(NCc1ccc(F)cc1)c1cnc(N2CCOCC2)c2ccccc12,inactive: -6.33%
19,Cc1cc(C)cc(NC(=O)C2CCCN(c3cnccn3)C2)c1 (stereo not given),inactive: -14.2%
20,Cc1ccc(Cl)cc1NC(=O)c1cc2c(=O)n3cccc(C)c3nc2n1C,inactive: 3.88%
21,Cc1ccc(S(=O)(=O)c2cnc(SCC(=O)Nc3ccccc3C(F)(F)F)[nH]c2=O)cc1C,inactive: -4.44%
22,CCOc1cc(CNC(=O)c2ccc3c(c2)nc2n3CCCCC2)ccc1OC,inactive: 0%
23,Cc1ccc(N2CCN(C(=O)c3ccc(Nc4nc5ccccc5n5nnnc45)cc3)CC2)c(C)c1,inactive: 2.87%
24,COc1ccccc1N1CCN(S(=O)(=O)c2c(C)sc3ncn(CC(=O)Nc4ccc(C(C)C)cc4)c(=O)c23)CC1,inactive: -2.02%

row,SMILES,"activity change, negative = inhibition"
1,COc1ccc(-n2c(=O)c3c4c(sc3n(CC(=O)N3CCCCC3C)c2=O)CCC4)c(OC)c1 (stereo not given),inactive: -2.4%
2,CC1CCN(CCCNC(=O)CN2C(=O)CSc3ccc(S(=O)(=O)N4CCC(C)CC4)cc32)CC1,inactive: -0.439%
3,O=C(NC1CCCC1)c1cnn(-c2ccc(F)cc2F)c1C1CCNCC1,inactive: -12.9%
4,COc1ccc(Cl)cc1NC(=O)CSc1nc2c([nH]c3ccccc32)c(=O)n1-c1ccccc1,inactive: 0.354%
5,Cc1ccc(S(=O)(=O)N2CCN(Cc3ccccc3)CC2)c(C)c1NS(C)(=O)=O,inactive: -1.46%
6,CCSc1nnc2c(n1)OC(c1ccc(OC)cc1OC)N(C(C)=O)c1ccccc1-2 (stereo not given),inactive: -0.852%
7,Cc1ccc(C2=NC(c3ccc(F)cc3)=Nc3ccc(C)cc3N2)cc1,inactive: 5.59%
8,COc1ccccc1OCCCCn1c(C2CC(=O)N(c3ccccc3Cl)C2)nc2ccccc21 (stereo not given),inactive: 7.64%
9,Cc1ccc(NC(=O)/C(C#N)=C/c2ccccc2Cl)cc1C,inactive: 1.28%
10,COc1ccc(CCNC(=O)Cn2c(=O)n(-c3ccc(OC)c(OC)c3)c(=O)c3ccccc32)cc1OC,inactive: -5.48%
11,CCN(CC)CCNC(=O)CN1C(=O)c2cccnc2Oc2ccc(C)cc21,inactive: 0.54%
12,Cc1ccc(NC(=O)CN2c3ccccc3S(=O)(=O)c3ccccc32)cc1F,inactive: 11.1%
13,CN(Cc1ccccc1)Cc1c(O)ccc2c(=O)c(-c3ccccc3)c(C(F)(F)F)oc12,inactive: -19.2%
14,COc1cc(NC(=O)Cn2c(=O)n(CC(=O)NCCc3ccc(OC)c(OC)c3)c(=O)c3sccc32)cc(OC)c1,inactive: -19.2%
15,Cc1nc(-c2ccc(S(=O)(=O)N3CCN(c4cccc(Cl)c4)CC3)cc2)co1,inactive: -6.71%
16,CC(=O)c1cccc(NC(=O)c2sc(-n3nc(C)c(CCC(C)C)c3C)nc2C)c1,inactive: -6.35%
17,CC(=O)Nc1ccc(S(=O)(=O)NCC2CCC(C(=O)NCc3ccccc3Cl)CC2)cc1 (stereo not given),inactive: -2.04%
18,CC(=O)NCCNc1nc2c(-c3cccc(C)c3)nnn2c2ccc(Cl)cc12,inactive: -20.6%
19,CSc1ccc(CNC(=O)Cc2csc3ccccc23)cc1,inactive: -6.88%
20,COc1ccc(-n2nnnc2C2CCN(S(=O)(=O)c3ccc(F)cc3Cl)CC2)cc1,inactive: -10.2%
21,COc1cccc(Nc2sc(C(=O)c3ccc4c(c3)OCO4)c(N)c2S(=O)(=O)c2ccccc2)c1,inactive: 2.68%
22,COc1ccc(N2CC(NC(=O)Cc3cccs3)CC2=O)cc1 (stereo not given),inactive: 3.67%
23,Cc1ccc2ncc(S(=O)(=O)c3ccccc3)c(N3CCCCC3C)c2c1 (stereo not given),inactive: 3.14%
24,CCn1c(C)c(C)c2cc(C(=O)NCc3ccc(N(C)C)cc3)ccc21,inactive: 0%

row,SMILES,"activity change, negative = inhibition"
1,COc1ccc(CNC(=O)CN(c2cc(C(F)(F)F)ccc2Cl)S(C)(=O)=O)cc1,inactive: 7.72%
2,COc1ccc(C2=NC3(CCCCCC3)N(CC(=O)Nc3ccc(C)c(C)c3)C2=O)cc1,inactive: 1.53%
3,Cc1ccc(C(=O)c2oc3ccccc3c2NC(=O)c2cc(-c3ccc(Cl)cc3)on2)cc1,inactive: -1.36%
4,COc1ccc(Cl)cc1NC(=O)Cn1ncc2c3ccccc3n(Cc3ccccc3)c2c1=O,inactive: -0.069%
5,Cc1ccccc1Nc1sc(C(=O)c2ccc(F)cc2)c(N)c1C(=O)NCCc1ccccc1,inactive: -0.397%
6,CCOc1ccc(C(=O)NCc2nnnn2-c2ccc(C)c(C)c2)cc1OCC,inactive: 0.0223%
7,Cc1cc(C)c(NC(=O)CCN2C(=O)c3ccccc3Sc3ncccc32)c(C)c1,inactive: 3.31%
8,Cc1ccc(-n2c(=O)c3ccc(C(=O)NCc4ccccc4Cl)cc3n(CC(=O)Nc3cccc(Cl)c3)c2=O)cc1,inactive: 1.17%
9,Cc1nc2cc(C(=O)NCCC3=CCCCC3)ccc2n1-c1ccc(Br)cc1,inactive: -0.431%
10,CCc1nn(CC(=O)NCC(C)c2ccccc2)c(=O)c2cc3occc3n12 (stereo not given),inactive: 0.987%
11,COC(=O)c1cc2c(cc1NC(=O)c1cnn(-c3ccccc3)c1-n1cccc1)OCO2,inactive: -0.0048%
12,CSc1nc(Nc2ccc(C)cc2C)cc(-c2ccccc2)n1,inactive: -2.8%
13,CCOC(=O)CNC(=O)CSc1cn(CC(=O)N2CCCCCC2)c2ccccc12,inactive: 0.889%
14,CN(Cc1ccccc1)C(=O)C1CCN(S(=O)(=O)c2ccc3c(c2)oc(=O)n3C)CC1,inactive: -5.34%
15,Cc1cccc(C(=O)Nc2nnc(S(=O)(=O)N(C)Cc3ccc(Cl)cc3)s2)c1,inactive: -5.06%
16,O=C1COc2ccc(-c3cc(-c4ccc(Cl)cc4)c4c(n3)-c3ccccc3OC4)cc2N1,inactive: 19.3%
17,Cc1cccc(Cn2c(=O)n(CC3CCC(C(=O)NC(C)C)CC3)c(=O)c3sccc32)c1 (stereo not given),inactive: 0%
18,COc1ccc(NC(=O)CN2C(=O)C(C)(C)c3ccccc32)cc1Cl,inactive: -3.34%
19,CSc1ccc(CCNC(=O)C2=C(C)C(=O)OC23CCCCC3)cc1,inactive: -7.28%
20,COc1cc(CNC(=O)c2sc3ncccc3c2-n2cccc2)cc(OC)c1OC,inactive: -12.7%
21,COc1cccc(C2CC(=O)Nc3cc(OC)c(OC)c(OC)c32)c1OC(C)C (stereo not given),inactive: -7.39%
22,Cc1nn(-c2ccccc2)c(OC(=O)c2cccc(Br)c2)c1S(=O)(=O)c1ccccc1,inactive: 1.31%
23,N#Cc1nc(-c2ccc(COc3ccccc3)o2)oc1NCc1cccnc1,inactive: -4.22%
24,COC(=O)c1ccc(OCC2c3cc(OC)c(OC)cc3CCN2C(=O)c2ccccc2C)cc1 (stereo not given),inactive: 10.1%

row,SMILES,"activity change, negative = inhibition"
1,Cc1ccc(-c2nnc(Nc3ccc(Br)cc3)c3ccccc23)cc1S(=O)(=O)NCC1CCCO1 (stereo not given),inactive: 2.4%
2,Cc1nc(N2CCCC2)c2c(C(=O)N3CCN(c4ccc(F)cc4)CC3)c(C)oc2n1,inactive: -3.24%
3,CCc1cccc(CC)c1NC(=O)c1c(C)oc2ccc(O)c(CN3CCN(C)CC3)c12,inactive: 6.84%
4,Cc1cccc(N2CCN(C(=O)Cn3ncc4c3-c3cc(C)ccc3OC4)CC2C)c1 (stereo not given),inactive: 1.43%
5,Cc1cc(C)cc(NC(=O)c2cc(C)nc3c2c(C)nn3-c2ccccc2)c1,inactive: -23.5%
6,COc1cccc(-c2nc(SCC(=O)NCC3CCCO3)c(-c3ccc(C)cc3)[nH]2)c1 (stereo not given),inactive: -30.8%
7,COc1ccc(NC(=O)Cn2c(=O)n(CCC(C)C)c(=O)c3cccnc32)cc1Cl,inactive: 0.997%
8,CCOc1ccc(C2CC(=O)NC(NC(=O)c3ccc(C)cc3)=N2)cc1 (stereo not given),inactive: 3.61%
9,Cc1ccc(OCC(=O)N(Cc2ccc(Cl)cc2)Cc2ccco2)cc1C,inactive: 2.99%
10,CC(C)NC(=O)C1CCC(Cn2c(=O)c3sccc3n(CC(=O)N3CCCC3)c2=O)CC1 (stereo not given),inactive: -8.64%
11,COc1ccc(NC(=O)c2ccc3c(=O)n4nc(Nc5ccccc5C)sc4nc3c2)cc1Cl,inactive: 0.881%
12,Cc1ccccc1Nc1cc(C(=O)NC2CCCC2)c2ccccc2n1,inactive: -0.733%
13,CCCOc1ccc(NC(=O)CC2C(=O)N(c3ccccc3)C(=O)N2Cc2ccc(F)cc2)cc1 (stereo not given),inactive: 0%
14,Cc1cccc(Cn2cc(/C=C(/C#N)C(=O)Nc3cccc(Cl)c3)c3ccccc32)c1,inactive: 2.87%
15,CCN(C(=O)c1cc2c(=O)oc3ccccc3c2s1)c1ccc(C)c(C)c1,inactive: -5.51%
16,Cc1ccc(Cn2c(C(=O)O)c(CNC3CCCCC3)c3ccc(C)cc32)cc1,inactive: 6.36%
17,Cc1ccc(C(=O)NCC(c2ccc3c(c2)OCO3)N2CCN(c3ccc(F)cc3)CC2)cc1 (stereo not given),inactive: 5.44%
18,CCOc1ccccc1NC(=O)Cn1c(=O)n(Cc2nc(C)no2)c(=O)c2ccccc21,inactive: -0.917%
19,Cc1ccccc1C(=O)Nc1ccccc1OCc1cc(=O)n2ccccc2n1,inactive: 2.93%
20,CCN(CC)c1nc2c(S(=O)(=O)c3ccccc3)nnn2c2ccc(Cl)cc12,inactive: -2.93%
21,CCOc1ccccc1CNC(=O)c1nc(-c2ccc(Cl)cc2)n2c1CCCCC2,inactive: -1.67%
22,Cc1cccc(CS(=O)(=O)Cc2ccc(C(=O)NCc3ccccc3)o2)c1,inactive: -6.09%
23,CCOc1ccc(CCNC(=O)c2c(C)oc3ncn(CC(C)C)c(=O)c23)cc1,inactive: 4.8%
